The text below walks through data of paper PMC12040169 (PLOS Biology, 2025).

Structures are written as SMILES. Some of the results follow.

The test has as its system T1, C. trachomatis L2/434/Bu expressing GFP (CTL2-GFP).
T1 construct: L2/434/Bu GFP intracellular growth in HeLa cells
Further details: species or system HeLa; C. trachomatis total inclusion area by high-content imaging, normalised to DMSO. The note with it: total inclusion area; 28.5 h, 10 µM; inhibitor. An outline of the steps:
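Bulk GFP and resorufin signals were read first. Wells were then fixed, stained with Hoechst and imaged to detect GFP inclusions and host nuclei. MICs followed the previously described calculation.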
`C[C@H](Nc1nc(-c2cc(C(F)(F)F)cc(C(F)(F)F)c2)cnc1N)c1ccccc1` [CBK063768]: the “% of control remaining” value is reported as 83.1143.

For `CCn1c(=O)n(CC2(O)CCCOC2)c2cc(S(=O)(=O)N(C)C)ccc21` (centres unmarked) [CBK304788], the “% of control remaining” value is reported as 69.2246. Regarding `O=C1NC[C@@H](CCC(=O)N2CCCC2)N2C[C@@H](NC(=S)Nc3ccccc3)C[C@@H]12` [CBK289004], the “% of control remaining” value is on record as 102.589. To `Cc1ccc(C)c2c1c1nc3ccccc3nc1n2Cc1nnc(-c2ccccc2)o1` [CBK268677] belongs 123.231; to `Cc1ccccc1NC(=O)c1ccc(Br)o1` [CBK107152], 25.6727; to `COc1nccnc1-c1ccc(Cl)c(Cl)c1` [CBK107110], 100.52.

For `C=CCn1c(Cc2csc(NC(=O)Cc3cc(OC)c(OC)c(OC)c3)n2)n[nH]c1=S` [CBK295311], the “% of control remaining” value is given as 94.3081.

For `Cc1nc(C(Cc2ccsc2)NC(=O)c2ccnn2C)sc1C` (centres unmarked) [CBK284778], the “% of control remaining” value turned out to be 91.8996. On to `Cc1cc(C)c2c(C(C)(C)C)nn(-c3ccc(C(=O)O)cc3)c2n1` [CBK267481], for which the “% of control remaining” value is 114.377. To `COC(=O)c1cc(Br)ccc1NC(=O)COc1ccccc1C` [CBK263715] belongs 105.441; to `CC(C)[C@H](CO)Nc1nc(-c2ccccc2)cnc1N` [CBK063933], 84.1752; to `CCN(CC)CCN(C)Cc1ccccc1Br` [CBK026593], 100.701. To `O=C(CN1C(=O)[C@@H]2CCCN2c2ncccc21)NC1CCCCC1` [CBK286204] belongs 106.302; to `Nc1ncc(-c2cccc(/C=C/C(=O)O)c2)nc1N1CCN(CCO)CC1` [CBK063665], 129.584. To `Cc1c(S(=O)(=O)Nc2ccc3cn[nH]c3c2)cnn1-c1ccccc1` [CBK067149] belongs 111.133. With `O=C(NCCc1nc2ccccc2[nH]1)c1cccs1` [CBK020529], the “% of control remaining” value came out at 45.9493. To `COc1ccccc1NC(=N)Nc1nc(CSc2nc3ccccc3s2)cc(=O)[nH]1` [CBK269046] belongs 95.4236. As for `Cc1c(C#N)c(=O)oc2ccccc12` [CBK007705], the “% of control remaining” value stood at 102.626. As to `CCN(CC)CCNc1nc(-c2cccc(Cl)c2)nc2ccccc12` [CBK267265C], the “% of control remaining” value amounted to 40.0935. Consider `CCC(COC)NS(=O)(=O)c1ccc(C(C)C)cc1` (centres unmarked) [CBK044587], for which the “% of control remaining” value worked out at 97.6496.

In the case of `CC(=O)NC1(c2ccc(F)cc2)CCN(C(=O)C2CCC2)CC1` [CBK283492], the “% of control remaining” value stood at 71.8569. For `COc1ccc(NC(=O)C2C3CCC(C3)C2C(=O)O)cc1OC` (centres unmarked) [CBK263684], the “% of control remaining” value was found to be 106.135. To `COc1ccc(CCNC(=O)c2ncoc2-c2cccs2)cc1` [CBK283663] belongs 42.0345; to `CS(=O)(=O)N(CC(=O)N/N=C/c1ccncc1)c1ccccc1Br` [CBK263911], 107.714. To `CCc1nc(C2CCCN2c2ncc(C#N)cc2Cl)no1` (centres unmarked) [CBK305183] belongs 28.6889; to `CNCCOc1ncccc1OCc1ccccc1` [CBK036306], 92.6905. To `COC(=O)c1cc(-c2ccccc2OCc2ccccc2)ccc1NC(=O)c1ccc(Cl)cc1Cl` [CBK000415] belongs 132.448; to `O=C(NCc1cccs1)c1cc(S(=O)(=O)N2CCOCC2)c(Cl)cc1Cl` [CBK269657], 75.2577. Regarding `Cc1ccc(C(=O)C2=C(O)C(=O)N(CCN(C)C)C2c2ccccn2)o1` (centres unmarked) [CBK266536], the “% of control remaining” value was determined as 117.726.

Turning to `COc1ccc2cc(C(=O)N(CCO)Cc3ccc(C)s3)n(C)c2c1` [CBK306831], the “% of control remaining” value was determined as 58.5002.

Turning to `Cc1cc(C)c2c(CC(=O)NCCCN3CCOCC3)coc2c1` [CBK268307], the “% of control remaining” value worked out at 91.6358.

Consider `O=C(/C=C/c1cn(C2CC(O)C(CO)O2)c(=O)[nH]c1=O)NCCNC(=O)C(F)(F)F` (centres unmarked) [CBK201214], for which the “% of control remaining” value came out at 122.685. As for `CCN(CC)CCCOC(=O)C(CCSC)c1ccccc1C` (centres unmarked) [CBK023177C], the figure is 32.5014; as for `Cc1nc(CC(=O)O)c(-c2ccccc2)s1` [CBK264988], 100.373; as for `Cc1ccsc1CCNC(=O)C1(Oc2cccnc2C)CCNCC1` [CBK307374], 83.4471. In the case of `FC(F)(F)c1ccc(-c2nnc(C3CC3)o2)cc1` [CBK021992], the “% of control remaining” value is reported as 51.8382.

For `Cc1cc(C)n(CC2CCCCN2CC(=O)NC(C)c2ccco2)n1` (centres unmarked) [CBK305331], the “% of control remaining” value is 96.8886. To `O=C(O)CCSc1nnnn1-c1ccccc1` [CBK287217] belongs 118.751; to `O=C(COc1ccc(CCO)cc1)Nc1ccccc1-c1ccccc1` [CBK269666], 79.1274. To `CC(Cc1nc(-c2cnnn2C)cs1)n1cc(Cl)cn1` (centres unmarked) [CBK304245] belongs 52.6535. As for `CC(Cc1nc(-c2nccn2C(C)C)cs1)n1cc(Cl)cn1` (centres unmarked) [CBK304251], the figure is 13.1385.
